# In all, about 33,000 sequences were measured (“E-score (-0.5 to 0.5)”: median about -0.035, highest 2% from about 0.34 on). The list shows a part of the results.
# Target: T1, Mot3 (UniProt P54785)
# T1 sequence: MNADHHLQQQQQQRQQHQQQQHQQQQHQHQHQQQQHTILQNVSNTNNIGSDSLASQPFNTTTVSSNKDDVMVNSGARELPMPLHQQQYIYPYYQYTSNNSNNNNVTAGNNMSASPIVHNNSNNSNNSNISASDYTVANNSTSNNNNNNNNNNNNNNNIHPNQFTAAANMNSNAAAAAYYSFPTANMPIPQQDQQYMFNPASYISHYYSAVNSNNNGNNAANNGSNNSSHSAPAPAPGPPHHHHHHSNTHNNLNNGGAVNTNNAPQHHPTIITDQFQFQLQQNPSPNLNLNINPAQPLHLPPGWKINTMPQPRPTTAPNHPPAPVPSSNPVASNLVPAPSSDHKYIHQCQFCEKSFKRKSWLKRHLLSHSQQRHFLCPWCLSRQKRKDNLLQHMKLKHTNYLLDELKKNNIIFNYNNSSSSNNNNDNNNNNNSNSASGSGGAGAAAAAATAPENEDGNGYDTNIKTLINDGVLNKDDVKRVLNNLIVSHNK
# Test: PBM E-score (8-mer binding enrichment) (E-score (-0.5 to 0.5)); higher = stronger / more preferred TF binding; most listed sequences are background and not binding sites
# Settings: protein concentration: 200 nM; construct: GST-full length
# Procedure, shortened: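 Each ungapped eight-base word and its reverse complement, pooled, received an E-score from the Universal PBM Analysis Suite. Underlying scans, normalised with masliner, recorded fluorescent anti-GST bound to GST-tagged yeast transcription factors. These were applied at about 100-200 nM to universal all-10-mer Agilent arrays double-stranded by primer extension.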
row,Sequence,PBM E-score
1,GATTGCGC,-0.0751
2,AGCGGAGA,-0.201
3,CCCTAAGG,-0.0438
4,AGTGTAAG,0.00213
5,ACAAGGGC,0.0718
6,ATGGAGAG,-0.0951
7,CGAGGCCA,-0.12
8,CATAGCTA,-0.137
9,GTCGGATA,-0.132
10,ACTATATC,0.149
11,CCCGTGAC,-0.083
12,AATCTCCT,0.0723
13,GGGGACCC,-0.217
14,AGGCGACG,0.111
15,CAACGTTC,0.122
16,ATTTCACC,0.138
17,TACCCCGA,-0.0828
18,GTACAAAA,0.272
19,ACTCAAGG,-0.0601
20,ATCGTGTG,0.204
21,CTGTTGAA,0.0523
22,AGGTTGGA,-0.173
23,CTTTCCTA,0.399
24,ACAGGCCA,0.296
25,ACTTTAAC,0.185

row,Sequence,PBM E-score
1,ACTGGTTA,0.127
2,ATTTTGGC,-0.0528
3,AGAAGTAG,-0.102
4,CAGTTGTA,0.00216
5,CGTCAATC,0.0322
6,ATATCCCA,-0.0768
7,ACGAACGC,0.0891
8,ACGTTAGG,0.137
9,TAAAGAAA,0.259
10,AGCTACGC,-0.00018
11,CTTAGCTA,-0.0227
12,ACGCCTCG,-0.0206
13,CTTCTCTC,-0.0299
14,GGTAGTCA,-0.163
15,ATCACCAG,-0.159
16,ACTGAAAA,-0.0071
17,CGCGGATA,0.0845
18,ACAAGGGT,0.216
19,ACATGGGT,0.242
20,CTGACCGC,-0.15
21,AAGGATAG,-0.208
22,TCATAGGA,0.0261
23,GGAACTCA,-0.0291
24,TCATGGAA,-0.0193
25,AGTAGCAC,-0.124

row,Sequence,PBM E-score
1,ACGGATCT,-0.14
2,GTATTCGA,0.0788
3,GTGGGCGA,-0.197
4,ACAGACCA,-0.0345
5,ACTAGTAT,0.133
6,CAGAGGAC,-0.229
7,ATAGAACC,-0.168
8,CCGGAGAC,-0.188
9,GCGTTGTA,0.235
10,CTAGCCAC,-0.0523
11,CCATGAAA,0.0774
12,GCGAAGCA,0.00953
13,AGTAGCCC,-0.277
14,CGCAGTTC,-0.0813
15,CCACTAAG,0.0148
16,AGTGGCAT,-0.249
17,CTTCGGGC,-0.157
18,GGTACTAC,0.162
19,AGGACTGC,-0.361
20,AGACTCAG,-0.272
21,CACCGATG,0.0123
22,CCCGATTA,-0.0246
23,TATTGGGA,-0.00069
24,GGAGGACC,-0.34
25,AGATTTTA,0.108

row,Sequence,PBM E-score
1,CTGCACAG,0.0307
2,CACACCAG,0.133
3,AATCCCCA,0.0522
4,ACGACGCA,0.149
5,AGTTTTGC,0.156
6,CGGACTAA,0.153
7,GGGAAGAC,-0.306
8,TAGCTAAA,-0.134
9,AGGGATGG,-0.13
10,ACCTTTGA,0.0366
11,CAGCCGCA,-0.272
12,GCAATCGA,0.00258
13,CGGGTAAC,-0.0233
14,ACCAGCGA,-0.19
15,ACGTCATG,0.0693
16,ATTACGCG,0.377
17,ATCCTCAA,-0.111
18,GTATCCAA,-0.0981
19,GAATTCAC,0.00672
20,ATTGACAG,-0.0116
21,GAAAGTCC,-0.191
22,AAATTAGA,0.0473
23,TCCAATCA,-0.0285
24,CTCGTTGA,-0.0503
25,CACCGGAA,-0.0631

row,Sequence,PBM E-score
1,CCATGTGA,0.141
2,GACACATA,0.167
3,AGGAACTC,0.396
4,AGTAACGA,-0.0297
5,AAGGTAGT,-0.0675
6,AACGCAGC,0.0742
7,CGCTTGAG,-0.145
8,AAGCGACA,-0.121
9,AATTTCGT,0.0592
10,AGATAAAA,0.0842
11,AATCGCCG,-0.211
12,GCCGGTGA,-0.159
13,CACCGTCC,-0.193
14,CGATATCA,-0.0141
15,AGGCCGCA,-0.18
16,ATTATATA,0.118
17,CCGACACA,-0.042
18,CACTCACA,-0.159
19,AGGTCCAT,0.0126
20,TCGCTAAA,0.0723
21,ACTGTTCA,-0.094
22,AGCGTTCA,-0.207
23,GGCAAACC,0.102
24,TAACCTCA,-0.0342
25,GCGGTGAA,-0.274

row,Sequence,PBM E-score
1,AAATCTGA,-0.0381
2,AGCTATGA,-0.185
3,CATCGGAC,-0.171
4,CACGTATA,0.18
5,ATTAAGCG,-0.0548
6,CCTGGGCA,-0.218
7,ACGTCTAT,-0.151
8,CGTCCGGA,-0.085
9,CATACCTC,0.0531
10,CCCCATGA,-0.11
11,AGAAAACG,0.11
12,GGACTCCA,-0.162
13,CCATCAAG,-0.111
14,ACCATCCA,-0.0488
15,ATCAGGCA,0.481
16,ACCTCTCT,-0.236
17,AGCCTGAC,-0.118
18,GCATGTAA,0.41
19,ACTAAAGC,0.0721
20,AAAGCGTA,0.0441
21,GCACGATA,0.0959
22,CAATCTGG,0.12
23,TAGATCAA,0.127
24,CACATTAA,0.2
25,AAAGTGAT,0.0249

row,Sequence,PBM E-score
1,GACCCACC,-0.306
2,AACGCTCC,-0.0471
3,GATACCCA,-0.0774
4,ACTCATCC,-0.106
5,GCTACGAA,-0.025
6,ATGATTGG,-0.122
7,AAACAGCC,-0.0389
8,AAAGGTAG,-0.135
9,CTGCCCCC,-0.194
10,CTGACGCC,-0.161
11,ATCCCTAG,-0.00685
12,CACTGAAC,0.0593
13,ACGCGGTC,0.175
14,ACCACCTA,-0.147
15,CGCGGCTA,-0.0609
16,CGGAGTCC,-0.101
17,GCATTGCA,-0.0064
18,AAGGGCAC,0.277
19,ACGCAACC,0.075
20,ACTCATAA,-0.0862
21,CTCTAAAG,-0.0723
22,AGCTCATG,-0.063

# From the supplement of paper PMC3334620
